# Assay results: the supplement of paper PMC12423691
# The other results are listed elsewhere or left out. Binding of human transcription factors and regulators to the viral nucleoprotein by AlphaScreen, crude cell-free proteins, amounts not normalised, one pass. Fold of the Venus control; higher = more signal. No active / inactive call. Single-pass screen; sequences are the whole Swiss-Prot entries looked up by name.
# B1: SALL4, Q9UJQ4 (protein)
# chain: MSRRKQAKPQHINSEEDQGEQQPQQQTPEFADAAPAAPAAGELGAPVNHPGNDEVASEDEATVKRLRREETHVCEKCCAEFFSISEFLEHKKNCTKNPPVLIMNDSEGPVPSEDFSGAVLSHQPTSPGSKDCHRENGGSSEDMKEKPDAESVVYLKTETALPPTPQDISYLAKGKVANTNVTLQALRGTKVAVNQRSADALPAPVPGANSIPWVLEQILCLQQQQLQQIQLTEQIRIQVNMWASHALHSSGAGADTLKTLGSHMSQQVSAAVALLSQKAGSQGLSLDALKQAKLPHANIPSATSSLSPGLAPFTLKPDGTRVLPNVMSRLPSALLPQAPGSVLFQSPFSTVALDTSKKGKGKPPNISAVDVKPKDEAALYKHKCKYCSKVFGTDSSLQIHLRSHTGERPFVCSVCGHRFTTKGNLKVHFHRHPQVKANPQLFAEFQDKVAAGNGIPYALSVPDPIDEPSLSLDSKPVLVTTSVGLPQNLSSGTNPKDLTGGSLPGDLQPGPSPESEGGPTLPGVGPNYNSPRAGGFQGSGTPEPGSETLKLQQLVENIDKATTDPNECLICHRVLSCQSSLKMHYRTHTGERPFQCKICGRAFSTKGNLKTHLGVHRTNTSIKTQHSCPICQKKFTNAVMLQQHIRMHMGGQIPNTPLPENPCDFTGSEPMTVGENGSTGAICHDDVIESIDVEEVSSQEAPSSSSKVPTPLPSIHSASPTLGFAMMASLDAPGKVGPAPFNLQRQGSRENGSVESDGLTNDSSSLMGDQEYQSRSPDILETTSFQALSPANSQAESIKSKSPDAGSKAESSENSRTEMEGRSSLPSTFIRAPPTYVKVEVPGTFVGPSTLSPGMTPLLAAQPRRQAKQHGCTRCGKNFSSASALQIHERTHTGEKPFVCNICGRAFTTKGNLKVHYMTHGANNNSARRGRKLAIENTMALLGTDGKRVSEIFPKEILAPSVNVDPVVWNQYTSMLNGGLAVKTNEISVIQSGGVPTLPVSLGATSVVNNATVSKMDGSQSGISADVEKPSATDGVPKHQFPHFLEENKIAVS
# B2: ZNF514, Q96K75 (protein)
# chain: MTFEDVAVEFSQWEWGQLNPAQKDLYREVMLENFRNLAILGLLVSKPYVICQLEEGGEPFMVEREISTGAHSDWKRRSKSKESMPSWGISKEELFQVVSVEKHIQDVLQFSKLKAACGCDGQLEMQQIKQERHLKQMSTIHKSATTLSRDYKWNGFGRSLGLRSVLVNQHSILMGEGSYKCDTEFRQTLGGNNSQRTHPEKKSCKCNECGKSFHFQSELRRHQRCHTGEKPYECSDCGRAFGHISSLIKHQRTHTGEKPYECSECGRAFSQSSSLVLHYRFHTGEKPYKCNECGRAFGHTSSLIKHQRTHTGEKPYECRECGRTFSQSSSLIVHYRFHTGEKPYKCNKCGRAFSQSSSLTQHYRFHTGEKPYKCNECGRAFAHTASLIKHQRSHAGKKTL
# B3: PBX1, P40424 (protein)
# chain: MDEQPRLMHSHAGVGMAGHPGLSQHLQDGAGGTEGEGGRKQDIGDILQQIMTITDQSLDEAQARKHALNCHRMKPALFNVLCEIKEKTVLSIRGAQEEEPTDPQLMRLDNMLLAEGVAGPEKGGGSAAAAAAAAASGGAGSDNSVEHSDYRAKLSQIRQIYHTELEKYEQACNEFTTHVMNLLREQSRTRPISPKEIERMVSIIHRKFSSIQMQLKQSTCEAVMILRSRFLDARRKRRNFNKQATEILNEYFYSHLSNPYPSEEAKEELAKKCGITVSQVSNWFGNKRIRYKKNIGKFQEEANIYAAKTAVTATNVSAHGSQANSPSTPNSAGSSSSFNMSNSGDLFMSVQSLNGDSYQGAQVGANVQSQVDTLRHVISQTGGYSDGLAASQMYSPQGISANGGWQDATTPSSVTSPTEGPGSVHSDTSN
# B4: PBX3, P40426 (protein)
# chain: MDDQSRMLQTLAGVNLAGHSVQGGMALPPPPHGHEGADGDGRKQDIGDILHQIMTITDQSLDEAQAKKHALNCHRMKPALFSVLCEIKEKTGLSIRGAQEEDPPDPQLMRLDNMLLAEGVSGPEKGGGSAAAAAAAAASGGSSDNSIEHSDYRAKLTQIRQIYHTELEKYEQACNEFTTHVMNLLREQSRTRPISPKEIERMVGIIHRKFSSIQMQLKQSTCEAVMILRSRFLDARRKRRNFSKQATEILNEYFYSHLSNPYPSEEAKEELAKKCSITVSQVSNWFGNKRIRYKKNIGKFQEEANLYAAKTAVTAAHAVAAAVQNNQTNSPTTPNSGSSGSFNLPNSGDMFMNMQSLNGDSYQGSQVGANVQSQVDTLRHVINQTGGYSDGLGGNSLYSPHNLNANGGWQDATTPSSVTSPTEGPGSVHSDTSN
# B5: PLAG1, Q6DJT9 (protein)
# chain: MATVIPGDLSEVRDTQKVPSGKRKRGETKPRKNFPCQLCDKAFNSVEKLKVHSYSHTGERPYKCIQQDCTKAFVSKYKLQRHMATHSPEKTHKCNYCEKMFHRKDHLKNHLHTHDPNKETFKCEECGKNYNTKLGFKRHLALHAATSGDLTCKVCLQTFESTGVLLEHLKSHAGKSSGGVKEKKHQCEHCDRRFYTRKDVRRHMVVHTGRKDFLCQYCAQRFGRKDHLTRHMKKSHNQELLKVKTEPVDFLDPFTCNVSVPIKDELLPVMSLPSSELLSKPFTNTLQLNLYNTPFQSMQSSGSAHQMITTLPLGMTCPIDMDTVHPSHHLSFKYPFSSTSYAISIPEKEQPLKGEIESYLMELQGGVPSSSQDSQASSSSKLGLDPQIGSLDDGAGDLSLSKSSISISDPLNTPALDFSQLFNFIPLNGPPYNPLSVGSLGMSYSQEEAHSSVSQLPPQTQDLQDPANTIGLGSLHSLSAAFTSSLSTSTTLPRFHQAFQ
# B6: NFE2L2, Q16236 (protein)
# chain: MMDLELPPPGLPSQQDMDLIDILWRQDIDLGVSREVFDFSQRRKEYELEKQKKLEKERQEQLQKEQEKAFFAQLQLDEETGEFLPIQPAQHIQSETSGSANYSQVAHIPKSDALYFDDCMQLLAQTFPFVDDNEVSSATFQSLVPDIPGHIESPVFIATNQAQSPETSVAQVAPVDLDGMQQDIEQVWEELLSIPELQCLNIENDKLVETTMVPSPEAKLTEVDNYHFYSSIPSMEKEVGNCSPHFLNAFEDSFSSILSTEDPNQLTVNSLNSDATVNTDFGDEFYSAFIAEPSISNSMPSPATLSHSLSELLNGPIDVSDLSLCKAFNQNHPESTAEFNDSDSGISLNTSPSVASPEHSVESSSYGDTLLGLSDSEVEELDSAPGSVKQNGPKTPVHSSGDMVQPLSPSQGQSTHVHDAQCENTPEKELPVSPGHRKTPFTKDKHSSRLEAHLTRDELRAKALHIPFPVEKIINLPVVDFNEMMSKEQFNEAQLALIRDIRRRGKNKVAAQNCRKRKLENIVELEQDLDHLKDEKEKLLKEKGENDKSLHLLKKQLSTLYLEVFSMLRDEDGKPYSPSEYSLQQTRDGNVFLVPKSKKPDVKKN
# Molecular target: nucleoprotein N of Crimean-Congo hemorrhagic fever virus
# Test: AlphaScreen luminescence signal relative to Venus negative control (fold); higher = stronger binding to CCHFV N
# Description: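 AlphaScreen binding of cell-free made, FLAG-GST-tagged human transcription factors and regulators (crude translation products) to biotinylated N protein; signal as fold of the FLAG-GST-Venus control. One pass.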
row,Binder,AlphaScreen luminescence signal
1,B1,2.14
2,B2,3.35
3,B3,2.14
4,B4,2.05
5,B5,3.44
6,B6,1.44
